The results in this text go back to the supplement of paper PMC11417369.

± gives the standard deviation of the averaged measurements. Some of the results follow.

The experiment relates to PfAP2-I AP2 domain 3 (GST-tagged). Put plainly: gcPBM binding intensity (ln(normalized median fluorescence intensity)); higher = stronger DNA binding. In outline:
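Plasmodium falciparum DNA-binding domains carrying a GST tag were expressed in E. coli and applied for 1 h, at about 25 μg on average, to an Agilent 4 × 180k array. The array held primer-extended double-stranded 36-bp intergenic genomic probes together with negative controls, and binding took place in 1× PBS with 1% milk, 0.2 mg/ml BSA, 0.5% salmon testes DNA and 0.03% Triton X-100. An Alexa488 anti-GST antibody detected bound protein, and the array was scanned at 488 nm. Binding intensity is taken as the highest Masliner-normalised natural-log median intensity across replicate spots of either probe orientation.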
As to “TATTTTTATTTTTAAACCATATATATATATATATAT [CACACA_negctrl_site1560]”, the “gcPBM binding intensity (ln)” value is 9.46 ± 0.32.
The value for “TATAATGATGATGATAGTACGTATGAGTAAGAAAAA [XGTACX_site31]” was 8.44 ± 0.62; that for “ATAAAAATATTTATTACACACATAAGCAAAAAAAAA [CACACA_site3484]” was 8.02 ± 0.81; that for “TATAGTTTCATTCTTTGTACATATATATTATTATTA [XGTACX_site8527]” was 7.98 ± 0.45.
For “AATGTGCAAACAAACTGTACTTTTTTTTTTTTTTTT [XGTACX_site928]” the value was 9.46 ± 0.22.
Regarding “AGATTTATTCATTCATGTACTTATTTATTTTATTTT [XGTACX_site6702]”, the “gcPBM binding intensity (ln)” value came out at 7.73 ± 0.4.
With “TATGAGAAAAAAAGTACATGCACAAAATGTATATGT [TGCATGCA_site789]”, the “gcPBM binding intensity (ln)” value came out at 8.46 ± 0.64.
Consider “ATTATATAAACCAAATGTACAAAAAGGTCGTAGTGG [XGTACX_site1298]”, for which the “gcPBM binding intensity (ln)” value was found to be 8.06 ± 0.59.
For “CAACATTGTTCCTATTGTACATGAACTGTTCATACG [XGTACX_site4070]” the value was 7.65 ± 0.61; for “ATTATTAAGGTTTATTCAAAAAAGACGTTTTTAAAT [CACACA_negctrl_site1059]”, 7.38 ± 0.63.
The value for “AGACACGTATACGATGCACACGTATGCTTTATATAT [CACACA_site9363]” was 8.16 ± 0.61; that for “GACATATATACCAAACGTACATATGTGCAAGCATAA [XGTACX_site3089]” was 8.35 ± 0.34.
For the sequence “TTGGCTATAGCCAATTGTACTTTTTCTCTTTGGCTT [XGTACX_site1119]”, the “gcPBM binding intensity (ln)” value is 7.5 ± 0.25.
For the sequence “TCTTGATTAACTTAAAAAAAAAAAAAAAAAAAAAAA [CACACA_negctrl_site458]”, the “gcPBM binding intensity (ln)” value worked out at 8.05 ± 0.83.
In the case of “CATATAATAAATAATTGTACTTGATATAATATTATG [XGTACX_site3562]”, the “gcPBM binding intensity (ln)” value stood at 7.49 ± 0.42.
In the case of “TATATTTGTGCGTGTACACATTTGAAAAAATATATA [CACACA_site5079]”, the “gcPBM binding intensity (ln)” value stood at 8.49 ± 0.12.
For “GCTTAATACAGAATAACACACAAAATAAATAAATAA [CACACA_site4041]”, the “gcPBM binding intensity (ln)” value amounted to 7.88 ± 0.61.
As for “TTTTTTTTTTTTTTTGCACACTTAAATTTGGTGGCT [CACACA_site5319]”, the “gcPBM binding intensity (ln)” value stood at 9.54 ± 0.16.
For the sequence “TATATAATTATTTTTTGTACTCATAATAATATGAAA [XGTACX_site289]”, the “gcPBM binding intensity (ln)” value amounted to 7.83 ± 0.18.
With “AATAATAATAAAAAGGTGCTGAAATATTTTTATTAT [GTGCAC_site9763]”, the “gcPBM binding intensity (ln)” value came to 9.19 ± 0.13.
For “ATAAATTATAATAACTGTACAAAAATAATATATTCA [XGTACX_site1856]” the value was 7.66 ± 0.44; for “ATATGTACAAAATAAGCACACACAAAAAAAAAAAAA [CACACA_site8984]”, 8.42 ± 0.37.
The value for “TTTTTTTTTTTTTTTTGTACATAAATTTTTATTAGA [XGTACX_site6409]” was 8.06 ± 0.59; that for “AAAAAAAAAAAAAATATATATATATATATATATATA [CACACA_negctrl_site540]” was 9.755 ± 0.021; that for “TTAAAATTATAATACGTACACACCTTATCTTTTTGG [CACACA_site278]” was 8.03 ± 0.57.
For “ATATATAACGGGCACACACACATTTACGTATGAATA [CACACA_site1833]” the value was 8.31 ± 0.49.
Take “GGCGTATGTGTATATACACACCCACGTATATATATA [CACACA_site9046]”: the “gcPBM binding intensity (ln)” value worked out at 8.79 ± 0.3.
On to “TGTTGTTTTATGTTGTATTGTAATATATTATATTAT [XGTACX_negctrl_site46]”, for which the “gcPBM binding intensity (ln)” value was 7.95 ± 0.57.
For “TTAGGATTGAAGAGTTGTACATACCTCTTATTTGTT [XGTACX_site1376]” the value was 7.55 ± 0.52; for “TATAAAATGTAATCTGAACACACATATTTTTTTAAT [CACACA_site8521]”, 7.43 ± 0.43.
With “ATCATATATTATTTATGTACTTATTTATAATAATAT [XGTACX_site8257]”, the “gcPBM binding intensity (ln)” value came to 7.8 ± 0.26.
The value for “AAATATATTTCTTTTTTTCTTATTATTAATTTGCTT [CACACA_negctrl_site1483]” was 7.41 ± 0.67.
As for “TATAGATTTATATACACATGCATTTTGGTAAAGAAA [TGCATGCA_site953]”, the “gcPBM binding intensity (ln)” value came out at 8.11 ± 0.45.
The value for “TTTATTTATTATTATGTACACACTATATTAAAACAT [CACACA_site700]” was 8.11 ± 0.42; that for “TTATAATAAATATTCATATGTTCAAATATATATATA [CACACA_negctrl_site624]” was 8.91 ± 0.28; that for “ATTGTAAGTAGACACACACACATATAGATGTATATA [CACACA_site6463]” was 7.68 ± 0.43.
For the sequence “TATTTTTTTAATAACTGTACTTTTTTGTCAAATGGA [XGTACX_site4179]”, the “gcPBM binding intensity (ln)” value came to 7.77 ± 0.4.
Consider “TAAGTTTTGTTCTTTTGTACATATAAGTATAGATCG [XGTACX_site4735]”, for which the “gcPBM binding intensity (ln)” value came to 7.71 ± 0.28.
Take “AATGTTTTTGTGAGATGTATAAATTTTATTTTATTT [XGTACX_negctrl_site413]”: the “gcPBM binding intensity (ln)” value came to 7.61 ± 0.52.
For “AAAAAAATAATGTACACACACATATAGGTTTATATA [CACACA_site192]” the value was 7.95 ± 0.071; for “AAACGTGTGTATAATAGTACATAATTATAACGTAAT [XGTACX_site421]”, 7.72 ± 0.59.
For “AAATTTGGCAAACACACACACACACCCACAGAGACA [CACACA_site4490]” the value was 8.305 ± 0.021.
Turning to “CGTATTTTTGGACATGCATGTACAAATAATCTTATG [TGCATGCA_site973]”, the “gcPBM binding intensity (ln)” value came out at 8.06 ± 0.42.
The value for “TTGGGCATAATGTCATGTACACAAATAATTCTTTAT [XGTACX_site861]” was 8.05 ± 0.35; that for “ATATATGGAGCTTATACACACTTTTATATTTTAACA [CACACA_site7757]” was 7.86 ± 0.63.
For “TTATTTTTTTTAAATTGTACAAGGAACAGTGAAAAA [XGTACX_site4380]” the value was 8.47 ± 0.36; for TTTGTGTGTACGCGTGTGCACATTTTTTTTTTTTTT, 9.58 ± 0.11.
The value for “TAAATGTCTTCAATGAAGTGGAAATGCTGTTATATA [CACACA_negctrl_site1155]” was 7.67 ± 0.49; that for “TATATAACCTATAGCACACATATATAATATATATTA [CACACA_site1834]” was 8.38 ± 0.33.
Turning to “TTCTATTCAAATGCAAAATTATTAAATAAAAAATAA [GTGCAC_negctrl_site708]”, the “gcPBM binding intensity (ln)” value was determined as 7.74 ± 0.54.
With TATAAATTAAAATGTGTGCACTAAATTGAAATAGAA, the “gcPBM binding intensity (ln)” value stood at 11.5 ± 0.53.
In the case of “ATATATATATATAATAGTACATATATTTTTATTGGT [XGTACX_site711]”, the “gcPBM binding intensity (ln)” value came out at 9.14 ± 0.23.
For “ATATTTTTTACAAATTGTACATTTTTACAATTATTA [XGTACX_site7496]” the value was 7.74 ± 0.58.
For “TAACCTAAAATAACTACACACACATAAAAAAAAAAA [CACACA_site8807]” the value was 8.14 ± 0.71; for “TCACTTAATATTTAATGTACATAAGGTTCTTGTGCC [XGTACX_site1822]”, 7.79 ± 0.52.
Turning to “TTAAAATATGAATAATGTACAAGAAATTTTATTAAT [XGTACX_site6314]”, the “gcPBM binding intensity (ln)” value was 7.79 ± 0.42.
